Measurements: article PMC12820563
The list shows a part of the results. The list includes weakly bound sequences.

The sequences below were run against T1, MBP-FoxP3dN (UniProt Q99JB6) (assay: PD-seq (MBP pull-down with sequencing)). Conditions: 20 mM Tris-HCl pH 7.5, 100 mM NaCl, 1.5 mM MgCl2, 0.4 uM protein, 0.1 uM dsDNA library, 30 min, room temperature, amylose pull-down; high values mean tight binding; double strand, one strand shown.
T1 sequence: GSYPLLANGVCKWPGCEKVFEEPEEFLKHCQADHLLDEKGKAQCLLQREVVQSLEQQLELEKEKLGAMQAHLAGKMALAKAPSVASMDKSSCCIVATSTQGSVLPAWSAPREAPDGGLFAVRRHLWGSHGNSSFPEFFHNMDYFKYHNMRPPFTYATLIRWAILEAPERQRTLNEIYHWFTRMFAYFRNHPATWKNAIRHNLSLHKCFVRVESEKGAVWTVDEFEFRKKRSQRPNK
Sequence “GATGATTGTTCTCCCAGCTGATGAATTTCTCTATTCGAGTAAACAAATTTTCCTAATCTTTCTGTTCAAGCGCCATCTAC” has a binding signal (RPM ratio (pull-down/input)) of 0.288.
“GATGATTGTTCTCCCAGCTGATGAATTAAACTATTCGAGTAAACAAATTTTCCTAATCTTTCTGTTCAAGCGCCATCTAC” showed a binding signal (RPM ratio (pull-down/input)) of 0.397.
With “GATGATTGTTCTCCCAGCTGATGAATTACAGGTATCGAGTAAACAAATTTTCCTAATCTTTCTGTTCAAGCGCCATCTAC” the binding signal (RPM ratio (pull-down/input)) was 0.685.
For “GATGATTGTTCTCCCAGCTGATGAATTATACTTTTCGAGTAAACAAATTTTCCTAATCTTTCTGTTCAAGCGCCATCTAC”, the binding signal (RPM ratio (pull-down/input)) was 0.642.
“GATGATTGTTCTCCCAGCTGATGAATTCAGTCCGTCGAGTAAACAAATTTTCCTAATCTTTCTGTTCAAGCGCCATCTAC” was tested, and the binding signal (RPM ratio (pull-down/input)) was 0.297.
In the case of “GATGATTGTTCTCCCAGCTGATGAATTGCGGCCATCGAGTAAACAAATTTTCCTAATCTTTCTGTTCAAGCGCCATCTAC”, the binding signal (RPM ratio (pull-down/input)) was 1.87.
“GATGATTGTTCTCCCAGCTGATGAATTGGATCCATCGAGTAAACAAATTTTCCTAATCTTTCTGTTCAAGCGCCATCTAC” showed a binding signal (RPM ratio (pull-down/input)) of 0.271.
“GATGATTGTTCTCCCAGCTGATGAATTAGAAAATTCGAGTAAACAAATTTTCCTAATCTTTCTGTTCAAGCGCCATCTAC” showed a binding signal (RPM ratio (pull-down/input)) of 0.201.
For “GATGATTGTTCTCCCAGCTGATGAATTGATGAGGTCGAGTAAACAAATTTTCCTAATCTTTCTGTTCAAGCGCCATCTAC”, the binding signal (RPM ratio (pull-down/input)) was 0.293.
With “GATGATTGTTCTCCCAGCTGATGAATTCGATGATTCGAGTAAACAAATTTTCCTAATCTTTCTGTTCAAGCGCCATCTAC” the binding signal (RPM ratio (pull-down/input)) was 1.19.
Sequence “GATGATTGTTCTCCCAGCTGATGAATTGAATCTATCGAGTAAACAAATTTTCCTAATCTTTCTGTTCAAGCGCCATCTAC” has a binding signal (RPM ratio (pull-down/input)) of 0.484.
Sequence “GATGATTGTTCTCCCAGCTGATGAATTCAACGTGTCGAGTAAACAAATTTTCCTAATCTTTCTGTTCAAGCGCCATCTAC” has a binding signal (RPM ratio (pull-down/input)) of 0.613.
In the case of “GATGATTGTTCTCCCAGCTGATGAATTGTCACCTTCGAGTAAACAAATTTTCCTAATCTTTCTGTTCAAGCGCCATCTAC”, the binding signal (RPM ratio (pull-down/input)) was 0.583.
With “GATGATTGTTCTCCCAGCTGATGAATTCGATGGATCGAGTAAACAAATTTTCCTAATCTTTCTGTTCAAGCGCCATCTAC” the binding signal (RPM ratio (pull-down/input)) was 0.402.
In the case of “GATGATTGTTCTCCCAGCTGATGAATTTATACGTTCGAGTAAACAAATTTTCCTAATCTTTCTGTTCAAGCGCCATCTAC”, the binding signal (RPM ratio (pull-down/input)) was 0.886.
“GATGATTGTTCTCCCAGCTGATGAATTGCTCGCATCGAGTAAACAAATTTTCCTAATCTTTCTGTTCAAGCGCCATCTAC” was tested, and the binding signal (RPM ratio (pull-down/input)) was 1.17.
With “GATGATTGTTCTCCCAGCTGATGAATTCAGTAACTCGAGTAAACAAATTTTCCTAATCTTTCTGTTCAAGCGCCATCTAC” the binding signal (RPM ratio (pull-down/input)) was 1.34.
“GATGATTGTTCTCCCAGCTGATGAATTTTCCAACTCGAGTAAACAAATTTTCCTAATCTTTCTGTTCAAGCGCCATCTAC” was tested, and the binding signal (RPM ratio (pull-down/input)) was 0.228.
“GATGATTGTTCTCCCAGCTGATGAATTCTATGAATCGAGTAAACAAATTTTCCTAATCTTTCTGTTCAAGCGCCATCTAC” was tested, and the binding signal (RPM ratio (pull-down/input)) was 0.343.
Sequence “GATGATTGTTCTCCCAGCTGATGAATTTGCTGACTCGAGTAAACAAATTTTCCTAATCTTTCTGTTCAAGCGCCATCTAC” has a binding signal (RPM ratio (pull-down/input)) of 5.1.
In the case of “GATGATTGTTCTCCCAGCTGATGAATTGCTCCATTCGAGTAAACAAATTTTCCTAATCTTTCTGTTCAAGCGCCATCTAC”, the binding signal (RPM ratio (pull-down/input)) was 0.543.
Work on “GATGATTGTTCTCCCAGCTGATGAATTTCATCGCTCGAGTAAACAAATTTTCCTAATCTTTCTGTTCAAGCGCCATCTAC” yielded a binding signal (RPM ratio (pull-down/input)) of 0.368.
With “GATGATTGTTCTCCCAGCTGATGAATTCCTGGTATCGAGTAAACAAATTTTCCTAATCTTTCTGTTCAAGCGCCATCTAC” the binding signal (RPM ratio (pull-down/input)) was 0.355.
“GATGATTGTTCTCCCAGCTGATGAATTCACATCATCGAGTAAACAAATTTTCCTAATCTTTCTGTTCAAGCGCCATCTAC” was tested, and the binding signal (RPM ratio (pull-down/input)) was 0.714.
“GATGATTGTTCTCCCAGCTGATGAATTGACTGCCTCGAGTAAACAAATTTTCCTAATCTTTCTGTTCAAGCGCCATCTAC” gave a binding signal (RPM ratio (pull-down/input)) of 0.474.
“GATGATTGTTCTCCCAGCTGATGAATTCCTGCACTCGAGTAAACAAATTTTCCTAATCTTTCTGTTCAAGCGCCATCTAC” was tested, and the binding signal (RPM ratio (pull-down/input)) was 0.472.
Work on “GATGATTGTTCTCCCAGCTGATGAATTCTCCTCATCGAGTAAACAAATTTTCCTAATCTTTCTGTTCAAGCGCCATCTAC” yielded a binding signal (RPM ratio (pull-down/input)) of 0.261.
“GATGATTGTTCTCCCAGCTGATGAATTCCAACTTTCGAGTAAACAAATTTTCCTAATCTTTCTGTTCAAGCGCCATCTAC” gave a binding signal (RPM ratio (pull-down/input)) of 0.395.
“GATGATTGTTCTCCCAGCTGATGAATTGAGCCACTCGAGTAAACAAATTTTCCTAATCTTTCTGTTCAAGCGCCATCTAC” was tested, and the binding signal (RPM ratio (pull-down/input)) was 4.76.
For “GATGATTGTTCTCCCAGCTGATGAATTCGAGATCTCGAGTAAACAAATTTTCCTAATCTTTCTGTTCAAGCGCCATCTAC”, the binding signal (RPM ratio (pull-down/input)) was 0.276.
For “GATGATTGTTCTCCCAGCTGATGAATTTTGGCGCTCGAGTAAACAAATTTTCCTAATCTTTCTGTTCAAGCGCCATCTAC”, the binding signal (RPM ratio (pull-down/input)) was 0.474.
